About 11,000 (3.1%) of roughly 360,000 compounds were called active. Inconclusive means that the source gave no clear call. Such entries were picked first, then a sample of the others. Calls come from the whole dose curve; as a rule, active = well fitted inhibition curve with a large enough effect; inconclusive = small, poorly fitted or top-dose-only effect; inactive = no such curve, though single readings can be large or run the other way. Potencies of inconclusive entries are left out as doubtful fits.
These molecules were tested against Schistosoma mansoni thioredoxin glutathione reductase (TGR) (UniProt Q962Y6) (assay: qHTS Assay for the Inhibitors of Schistosoma Mansoni Peroxiredoxins). Conditions: purified TGR, DTNB reduction, TNB absorbance 405 nm; series mostly up to 114 µM.
Procedure, shortened: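 TGR 20 nM + NADPH 100 uM (dispensed conc.), cpd preinc 15 min RT; start with NADPH (500 uM addition) then DTNB (15 mM addition). Kinetic TNB absorbance, 405 nm filter. Four-parameter Hill fit across titration.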
`Cc1cc(C(=O)CS(=O)(=O)c2ccc(Cl)cc2)cc(C)c1O` was tested, and the Potency was active: 4.47 µM. `CCN(c1cc(C)cc(C)c1)S(=O)(=O)c1nnc(NC(=O)c2cccc(F)c2)s1` was tested, and the Potency was “inactive”. `OC(C#CCN1CCOCC1)(c1ccccc1)C1CCCC1` (stereo not given) was tested, and the Potency was inconclusive [inhibitor, single point]. `COc1ccc(CCNC(=O)CN2CCCc3ccccc32)cc1OC` was tested, and the Potency was inconclusive [inhibitor, partial curve]. In the case of `N#CC1=C2SCN(Cc3ccco3)CN2C(=O)CC1c1ccccc1F` (stereo not given), the Potency is reported as inconclusive [inhibitor, full curve]. With `CC(C)c1ccc(N2C(=O)CC(=O)NC2=O)cc1` the Potency was inconclusive [inhibitor, full curve, poor fit]. In the case of `O=C(C1CCC(=O)N(C2CCCC2)C1)N1CCN(Cc2cccc(Cl)c2)CC1` (stereo not given), the Potency is reported as inconclusive [inhibitor, partial curve]. For `Cc1cccc(C(=O)NC2CCN(C(=O)NCc3ccccc3)CC2)c1`, the Potency was active: 11.2 µM. For `CCCCOc1ccc(C2C(C(=O)c3ccc(C)o3)=C(O)C(=O)N2Cc2ccco2)cc1` (stereo not given), the Potency was inconclusive [inhibitor, partial curve]. For `Cc1cc(C(=O)N/N=C/c2cc(Br)c(Br)o2)n[nH]1`, the Potency was active: 10 µM. In the case of `CCC(O)(CC)C(=O)N/N=C/c1cc(Br)cc(Br)c1O`, the Potency is reported as inconclusive [inhibitor, partial curve]. For `CCOc1ccc(N(C)S(=O)(=O)c2ccc(-c3ccc(=O)[nH]n3)s2)cc1`, the Potency was inconclusive [inhibitor, full curve, poor fit]. With `CCc1ccc(-c2nc(CS(=O)CC(=O)NC3CC3)c(C)o2)cc1` (stereo not given) the Potency was active: 3.98 µM. With `COc1ccc(-n2nnnc2SC(C)C(N)=O)cc1` (stereo not given) the Potency was inconclusive [inhibitor, single point]. For `Cc1cnc(C(=O)Nc2ccc(OC(F)(F)F)cc2)cn1`, the Potency was “inactive”. For `COc1ccc(-n2c(-c3ccc(Br)cc3)nc(=S)c3c2CCCC3)cc1`, the Potency was inconclusive [inhibitor, full curve]. For `COc1ccc2nc(NC(=O)c3cccc(OCc4c(C)noc4C)c3)sc2c1`, the Potency was inconclusive [inhibitor, single point]. In the case of `CC1(C)OC(=O)C=C[C@]2(C)[C@H]3CC[C@@]4(C)[C@H](c5ccoc5)OC(=O)[C@H]5O[C@]54[C@]3(C)C(=O)C[C@@H]12`, the Potency is reported as inconclusive [inhibitor, partial curve]. In the case of `O=C1CCC/C1=C/Nc1cccc(F)c1`, the Potency is reported as inconclusive [inhibitor, partial curve]. In the case of `Cc1cc(NC(=O)c2ccc3c(c2)OCO3)no1`, the Potency is reported as inconclusive [inhibitor, single point]. In the case of `N#C/C(=C\c1ccc(OC(=O)c2ccccn2)cc1)C(N)=O`, the Potency is reported as active: 39.8 µM. With `COc1cccc(CN2CCN(C3CCN(c4ccccc4F)CC3)CC2CCO)c1` (stereo not given) the Potency was active: 22.4 µM. In the case of `O=C(COC(=O)CC1CC2CCC1C2)NC(=O)NCc1ccco1` (stereo not given), the Potency is reported as inconclusive [inhibitor, full curve, poor fit]. `COc1ccc(N2CCN(S(=O)(=O)CCNC(=O)c3cc(=O)c4ccccc4o3)CC2)cc1` was tested, and the Potency was “inactive”. `C=CCN1C(C(=O)c2ccccc2)=C(OC(=O)COc2ccccc2)c2ccccc2S1(=O)=O` was tested, and the Potency was active: 11.2 µM. `CSCCC(=O)Nc1nc(-c2ccccn2)cs1` was tested, and the Potency was “inactive”. For `CC(C)(C)c1ccc(Oc2nc3ccccn3c(=O)c2/C=C(\C#N)c2nc3ccccc3s2)cc1`, the Potency was active: 3.16 µM. In the case of `COc1ccc(C(=O)Nc2cc3c4c(c2)CC(=O)N4CCC3)c(OC)c1`, the Potency is reported as inconclusive [inhibitor, partial curve]. With `c1ccc(CC2CCCNC2)cc1` (stereo not given) the Potency was inconclusive [inhibitor, partial curve]. `Cc1ccc(C(=O)NCC(c2ccco2)S(=O)(=O)c2cccs2)cc1C` (stereo not given) was tested, and the Potency was inconclusive [inhibitor, full curve, poor fit]. With `CCOc1ccc(N=Nc2c(C)[nH]n(-c3ccccc3)c2=O)cc1` the Potency was inconclusive [inhibitor, partial curve]. In the case of `O=C(/C=C/c1ccco1)N1CCN(S(=O)(=O)/C=C/c2ccccc2)CC1`, the Potency is reported as active: 12.6 µM. With `Cc1noc(/C=C/c2ccco2)c1S(=O)(=O)N1CCC(C(=O)Nc2ccc(Cl)cn2)CC1` the Potency was inconclusive [inhibitor, partial curve]. In the case of `Cn1ncc(Cl)c1C(=O)Nc1sc2c(c1C(N)=O)CCC2`, the Potency is reported as inconclusive [inhibitor, partial curve]. With `O=c1cc(-c2c(O)c3ccccc3n(Cc3ccccc3)c2=O)[nH][nH]1` the Potency was inconclusive [inhibitor, full curve, poor fit]. `NC(=O)CC(NC(=O)c1cccc(Br)c1)c1ccc(NC2CCC2)c([N+](=O)[O-])c1` (stereo not given) was tested, and the Potency was inconclusive [inhibitor, full curve, poor fit]. `O=S(=O)(c1ccc(NC(=S)NCCC(c2ccccc2)c2ccccc2)cc1)N1CCOCC1` was tested, and the Potency was “inactive”. With `COc1cc(CN2CCCC(N3CCc4ccccc4C3)C2)c(Cl)cc1O` (stereo not given) the Potency was inconclusive [inhibitor, full curve]. For `S=C(N/N=C/c1ccco1)NC1CC2CCC1C2` (stereo not given), the Potency was inconclusive [inhibitor, full curve]. In the case of `CCCOc1ccc(N2C(=O)CC(SCc3nc4ccccc4[nH]3)C2=O)cc1` (stereo not given), the Potency is reported as inconclusive [inhibitor, partial curve]. With `CC(=O)CCS(=O)(=O)c1ccc(C)c(C)c1` the Potency was active: 50.1 µM. `COc1ccccc1C(=O)OCc1cc(=O)n2nc(-c3cccs3)sc2n1` was tested, and the Potency was inconclusive [inhibitor, single point]. With `Cc1cc(-c2nnc(CCC(=O)NCC(C)c3ccccc3)o2)no1` (stereo not given) the Potency was “inactive”. `CCS(=O)(=O)c1c([N+](=O)[O-])ncn1C` was tested, and the Potency was active: 0.631 µM. In the case of `Cc1ccc(N(C)S(=O)(=O)c2cccc(C(=O)Nc3ccc(N4CCOCC4)cc3)c2)cc1`, the Potency is reported as inconclusive [inhibitor, partial curve].

From PubChem BioAssay AID485364 (National Center for Advancing Translational Sciences (NCATS), 2010)
Note: nearly all actives have a fitted effect of over 60% in size.
Potency is the fitted concentration of half-maximal effect; tags give direction and shape of the fitted curve.
